Assay results as given in the RNAGym collection of RNA variant scans (doi:10.7554/elife.90254).
Read counts are not given, so values of variants with three or more changes are uncertain.

B1: OR4K15 (parent)
chain: GUUAACGGUCAUAGGCCAUGGAAACUAGGAGCACCAUUUCGCUGCCAGUGAAGAAAUGAACAAAGAAAAUCUGGGCCAGGCAGGCAUCAAAAGAAAUAGUCUUGCGCUCAACCAGAAAGUCUGUAAUCAUUUUAAGGGUA

Variants of: B1
Assay: self-cleavage, relative activity (ratio to wild type); higher = more cleavage; in vitro, sequencing; the parent is a self-cleaving ribozyme

Row | Variant | self-cleavage
1 | A5G A36C U57A A63G U87C U100C A116G | 0.69
2 | C42A U57A A90G U133C | 1.05
3 | A22G A63G A69G U130C | 1.89
4 | A62G A82U A96G U122A | 0.24
5 | A4G U43C A52G A111G | 0.13
6 | A4G U9C U19C A55U A89G | 1.43
7 | G20U A27G U43C C105G | 0
8 | U43C U70C U72C U102C | 0.27
9 | U2C A52G A110C A116G U132C | 0.04
10 | U9C U38C A59G | 1.15
11 | U70C A92G A118G A134U | 0.18
12 | U2A A18C C25U A90G | 1.14
13 | A66G A91G U130C G137A | 0.8
14 | U2C A64U U87C U133A | 0.25
15 | A24U U37C A62U G65U A91U | 1.86
16 | A23G G44A A96G | 1.28
17 | U2C C85G U122C | 0.82
18 | C10A U19C G115A | 0.04
19 | A27G C40U A66G A67G | 0.62
20 | A78U U108C A116G | 0
21 | A4G U57C U100A | 0.43
22 | U100A A116G A135G | 0.09
23 | A52G A62G A64C C105U | 0.01
24 | A13G A30G U100C G115A | 0.99

Row | Variant | self-cleavage
25 | U9C A33G U38C A96G | 1.34
26 | U12C U39C A52G | 2.1
27 | U37C A52G U102C A116G | 1.48
28 | A22U A23G U122C A134G | 0.66
29 | U43C A62G U122G A125G | 1.45
30 | A60U A96G A110G | 0.16
31 | A55G A90G A129G | 0.45
32 | A4G A54G U70A | 0.68
33 | G1U G7A A54G A82U | 0.16
34 | U2A G29A A69G A110G A126G | 0.15
35 | A54G A94G A116G | 0.14
36 | A67G A82G U87C | 0.22
37 | A33U U43C C76U A98U A135G | 0.05
38 | A36G U49C C77A | 0.89
39 | A33G A110G A114G A140U | 0.03
40 | A69G U70C C105U | 0.07
41 | A55G A68G A78G | 0
42 | A23U A67G A92G U120C | 0.53
43 | A11U A18G A52U A90C A91G A114G | 0.52
44 | G7A C34A C61U | 1.9
45 | U19A A36G U43A A52G A60G A64G A67C | 0.57
46 | U43A A52G A55U U97G U131C | 1.84
47 | A51G A126G U132C | 0.6
48 | A11C A59U A96G C109U | 0.3

Row | Variant | self-cleavage
49 | A24U A55U A89U U131C | 1.29
50 | A22G A110G U131C | 0.16
51 | A36U U43C A92G U131C | 0.86
52 | U9A A56G U103C | 0.59
53 | A67G A92U U132C | 1.42
54 | U72C A94G U102C U132C | 0.49
55 | A24C A55G A69G A89G A96G U130C | 0.55
56 | A36U A94G A111C | 0
57 | U3C A24U A27U A91G | 1.9
58 | A23G U102C A129G | 1.26
59 | A5G A60G A68G | 1.14
60 | A24G A52G A54G G115U | 0.27
61 | A60G A92G U120A | 2.61
62 | A51G A59U U87C U127C | 0.5
63 | C10U A68G A78U A92G A116G | 0.08
64 | U38C A92G U100C | 2.6
65 | A11U A33G A67G U87C A91G | 0.77
66 | A23G G48U A63G A86U | 1.4
67 | A54G A78G A114G A125G | 0.03
68 | U19A A55C U102A A117G | 0.72
69 | A30U U37C A63G A91G A95G U108G A111G | 0.05
70 | U3A A36G A63G | 1.4
71 | U43C G74A A86G A116G | 0.05
72 | A22G U37C A56G A90G C105U | 0.03

Row | Variant | self-cleavage
73 | A33G U43C A59G A62U | 0.87
74 | A22G U49C A68G U131C | 0.83
75 | A68U A86U A116U A126G | 0.32
76 | A11G A33G U49A | 0.39
77 | U19C A33G A63G A117G | 1.04
78 | A63G U70C A116G | 0.7
79 | A78G A95U A126G | 0.08
80 | U43C A55G G75C U130A | 0.11
81 | U19C A24C U39C A52G | 1.16
82 | A4G A18G U57A | 1.48
83 | A67G A86G U108C | 0.02
84 | A51G A59G U72A A129G | 0.14
85 | A22G A52G A111G | 0.07
86 | A22G C45U A66G | 0.93
87 | U19C A62G U70C | 0
88 | C45U A59G A116U U130C | 0.25
89 | A22G A23G A51G | 0.81
90 | A5G U26C A63G A95G | 2.06
91 | U2A U43C A54G A62U U87A A111G U130C | 0.05
92 | A22G A52G A90G | 1.12
93 | U12C A92G A114G U131C | 0.28
94 | U103C U124C G136A | 0.23
95 | A95G A117G U122A | 1.7
96 | A4G A23U A96G | 1.3

Row | Variant | self-cleavage
97 | A11G A47U A54G A86G A118G | 0.18
98 | A91G A94G U124C | 0.51
99 | U9C A96G U130C | 1.34
100 | G31C U37C A69G | 1
101 | U57A U130C U132C | 1.29
102 | U12C A54G A117G | 1.47
103 | U2C U39C A91G A126G | 0.62
104 | U26C A33U U57A A89G | 1.36
105 | A92U U102C C105U | 0.55
106 | A47G A64U A90G | 0.2
107 | A22G A78G A117U A140U | 0.14
108 | U2C U3A A5G A55U | 0.56
109 | A24C U108C A118G | 0
110 | A27G A30U U37C A89G U108C | 0.03
111 | A51U A68U U100C A111G A140G | 0.02
112 | A24G A63G A86G | 1.63
113 | A51U A69G U108C | 0
114 | U38C A51G A129G | 0.16
115 | U70C A82G U108C A117C U127A U130G | 0.01
116 | A51U A62G U133C | 0.89
117 | C16G U19A U39C A92G | 1.6
118 | A4G U26C A47U A54G G138A | 0.69
119 | A56G A89G A114U | 0.02
120 | U37C A47G A59U A111G | 0.02

Row | Variant | self-cleavage
121 | A11G U100C U131A A135G | 1.69
122 | A13U A54G A64G G79U A82G | 0.18
123 | A33U A82U A117G U131C A134G | 0.08
124 | U2C U3C A55G A95G A98G | 0.89
125 | A27G U37C U39C A78U | 0.23
126 | A67G U122A U124C | 0.67
127 | U19A U26A U43C G50U | 1.37
128 | A52G G58U G75A | 0.04
129 | A55G A86G U87C | 0.6
130 | A55G A90G A118G | 0.22
131 | A5G A62G A114G A125G | 0.1
132 | U39C A66G A69G | 1.33
133 | G1A A22G A51G | 1.67
134 | C16U U57A U102A A111U | 0.02
135 | U39A A89U A92G U127C A134G | 0.68
136 | U38C U43A A60G U72C A78G A92G A94G | 0.16
137 | A5G G79U A94G U102C | 0.22
138 | U87A U102G U103A | 0.11
139 | A11C A68U U72C U97C U100C U132C | 0.7
140 | U9A A30G A91G | 1.5
141 | C34G U108A A117G U127A A140G | 0
142 | U72A A90G A91G | 0.16
143 | A11G C35A A51G A98U A110G | 0.12
144 | A67G A78U A129G U131C | 0.05

Row | Variant | self-cleavage
145 | A33G G44U G104A | 0.02
146 | A55G A78G U120C | 0.3
147 | A22G A51U A111U A114U | 0.02
148 | A67G A96U U122C | 2.02
149 | U39A A64G U130C | 0.36
150 | A82G U97C U102A U131C | 0.07
151 | A90G A92G A111G | 0.03
152 | U38C A67G A96G | 0.82
153 | U26C A86G A90G A91G U100C | 1.69
154 | A36U A98G A140G | 0.42
155 | A33U A118G A135U | 1.23
156 | A67G U103A A116G | 0.33
157 | A23G A110U U127C | 0.37
158 | A66G U72A A117G | 0.14
159 | U2C A27G A52G A82G C105G A126G | 0.02
160 | A24G A33U U49C G58U | 1.41
161 | A11C A23G A52G A63U U97C | 0.45
162 | A55G A60G A98G | 0.7
163 | A5G U39C A55U A69G | 1
164 | A30G A33G A64G | 0.43
165 | A18U A78G U130C U133C | 0.16
166 | A23G A30G U49C A64U A91G C105A | 0.04
167 | U87C A95G A129U U132C | 0.86
